Sequences with one replicate were seen in a single cluster, so their values are uncertain.
System: ATP
Assay: switch fluorescence ratio, 500 uM ATP over buffer (Cy3 cluster intensity, sum of 5 cycles each) (fold (ratio)); higher = stronger signal-on switching upon ATP binding; sequences stand for … in TCGTCGGCAGCGTCAGATGTGTATAAGAGACAGTTTTTTTTTTTTTTTTTTTTTTTTT…TC
Conditions: aptamer strand: ATP DNA aptamer (quencher-CACCTGGGGGAGTATTGCGGAGGAAGG + anchor), 100 nM annealed; ATP concentration: 500 uM; one replicate
Outline: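 Clusters carrying Cy3-labelled switching strands on a modified Illumina MiSeq flow-cell were annealed to 100 nM quencher-labelled ATP aptamer and imaged in selection buffer. They were imaged again after 15 min with 500 uM ATP at 22 °C, over five buffer/ATP cycles with NaOH stripping and re-annealing in between. For each cluster, the fluorescence ratio is the summed Cy3 intensity of the target cycles divided by that of the buffer cycles, averaged per switch-domain sequence. Clusters outside 100-1000 RFU were left out.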
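Further: ATP exposure 15 min at 22 °C before imaging.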

Sequence	switch fluorescence ratio
GGAGTATACA	0.983
AGGTGATGCA	1.05
GTGCCAGCCT	1.05
GATGACGGGA	0.984
CCCTTTATCC	1.09
TCATGAGAGC	0.934
TCATGGCAGG	0.994
TACTCCTGTA	1.11
GGAAATGGAG	0.971
CGTCGAAAAC	1.04
CGGAAACGGG	1.01
CAGGTCCTTG	1.03
ATAGCAGGGC	1.04
AGACTGAGGA	1.02
TATTTTATGA	0.977
GTGCCGATGC	1.03
AAGGGGTCCG	0.915
GCTCGGGTTT	0.978
TCTCTGGG	0.998
GAGTTGTAGG	1.01
CCCCATACCA	1.16
CGTTACGGGC	1.06
TTGTGGAGGG	1.04
TAGTTGGTTA	0.981
GGTGATATCT	0.984

Sequence	switch fluorescence ratio
GAGACGGGTA	1.01
TAATTCATCA	1.02
GTCCTAAGAT	0.987
CCTCGTATG	1.02
TGAAGATAGG	0.961
AGGAGGTGTT	1.01
CCTTGTTGCT	0.951
ATTTCTGATA	0.987
TGTTCACGGA	1.01
ACACACGTCG	1.33
TACTTCCTT	1.07
CTTGCAACTT	1.05
CTGTAACGTC	1.09
TAAATATTCG	0.911
TGCAAGACCT	1.43
TTAATCCGTG	1.03
CAGTGTACTG	1.01
AACGAATCAT	0.972
GCACTTTTTT	1.04
TTCAACTACC	1.1
AAATCTGACC	1.21
TGTCCAGTTC	1.08
TTAACGGTT	0.946
TTTGAAGGGC	0.951
TAGGTCCTGC	1.02

Sequence	switch fluorescence ratio
ACTGTGAGG	1.05
TTCTAGTCGA	0.965
TACGGGTATC	1.09
GAGTCGTTCT	0.939
TTGTCCAGGG	1.23
TCGGAGGGGT	1.05
CGCTGTGTGT	1
GGGTGCGTGT	0.973
CCGGCTCCGT	1.29
GAGGGGTCTG	0.952
ATTGCCCTCA	0.992
ATCATGGCAG	0.975
AATCTGAGGG	0.998
TATACAACTG	0.982
ATGCCGCCGA	1.01
AGGACCATTT	1.02
AGAATCGCTT	0.97
ATTTACCTTA	1.02
GAGCCCCAGG	3.23
CCAGAAAGTT	0.997
AGCCTCTCGG	0.964
TACGGTGCTA	1.04
CAGAGGTGTT	1.1
CAATATCAC	1.03
GCTTATTGAA	0.987

Sequence	switch fluorescence ratio
AAATGTGTTC	1.02
AATTGCTGGG	1.04
GTCCGTAGGG	1.03
CGAATGAACA	0.984
TAAATGCGAC	1.09
TCAAAAGTA	0.986
TTCGGCGCTA	1.2
ACTAAAAAAG	1.01
AAACAGTCTT	1.01
CACCACCGAG	1.11
GGAATGTGTC	0.998
TATGTGTTAG	1.01
GCGGGAATTT	0.974
CTTAAGCGCC	1
CGATGTGTTT	1.03
GATGAGCATT	1
GGCACATCTT	0.986
GCGGGTAGGG	1.02
TACAGGACGG	1.12
GCCCAATGTT	1.05
CGTTTCAGCC	0.98
ATACGTGGGT	0.996
CGCTAGGAGT	1.02
CTGTACACGT	1.06
TTGTCGAACG	1.05

Sequence	switch fluorescence ratio
CACTCATAAC	1
GATGAGGACG	1.04
CAGCCCCCGC	1.11
CAATCCAGAC	1.03
TATCAGGATT	0.978
CGTCAAACCT	2.83
GGGTATTCCT	0.985
GCGGTATCAT	0.979
AAGCTTGTGC	1.03
TTCAATCGGA	1.01
CGGGAAATTT	1.38
CGAAGAGATG	1.02
TTCGCTGTTT	1.04
AAATGGCGCT	0.987
ATAGGGAAAT	1.01
TGGTCATTAT	1.01
TATTGATCAA	0.99
AAAATGTATG	0.992
GTAGAATTGA	1
CCGGATGCCC	1.07
GTTTCCAAGA	1.11
GGCGTGGAGG	1.04
GGGATTTCGC	0.988
ATGCTGAAA	0.981
GCAAACTTCT	1.02

Sequence	switch fluorescence ratio
GCGGGCAGG	1.01
CCAGAGCCTT	1.48
GGCATTGAAT	1
GGGTTCCCCG	0.981
GGAGCGAGTA	1.03
CGAGATGGAG	1.01
TTACGGCTAT	1.1
GATAGTTGCT	0.987
TTCTTCCGAG	2.73
AATATAGGCT	1.01
AAATAATCC	1.07
GCGATCCAGG	2.9
TTGACGTTGT	1.01
AAGTGTGGA	1.07
GGAACGTGGG	0.992
CTATTTCCAG	1.03
ATGGGAATAA	1.05
TGGCGCCCGC	1.02
GAACGTGAGC	1.08
CGGTTTCGTA	0.965
AGGAATATAG	0.999
AACCAATGAT	0.992
GCTGTAGATC	1.04
TCGCGAAACG	1.03
TTGGGGGAA	1.06

Sequence	switch fluorescence ratio
CGGATGTCCT	1.03
CACGACGGTC	1.15
TTTGAAAA	1.02
AAAGATTTT	1.11
GACCTATAAA	1
TCCGAGTGCA	2.81
GTGTGGGACT	0.969
TGTGAAGGCA	0.969
GAGCGCCAAG	0.982
ACCCCCGGGT	1.35
AAAAGGCCGC	0.99
TGAAAAGGCA	1.03
CGTAGTCGAT	1.01
GATGCGCAAG	1.1
GGATGGAGTT	0.972
GATCTTCAAA	1.02
ACAGCAGCTA	1.04
GCTAGTCACG	0.979
CATTTCATGG	0.995
CACAGGGACA	1.19
ACGAGTAACC	1.01
TGGTAAAATA	1.07
ACCGACCCTT	1.21
AAGCAAAATG	1.1
ACGCGGACG	1.01

Sequence	switch fluorescence ratio
AACAAAATTA	0.999
TACATTCTGT	1
CGAGATACCA	1.15
AGAAAAGCG	1.04
TGGATGGGTT	0.958
AATCGGAGT	1.01
ATAGTTTGGC	1.07
TCCTACATGA	1.12
ACGGGAAACG	1.01
TCTTGTGACG	1.08
GAGCGCGCCC	0.969
AAAGAGTGCT	0.976
TTTCAATCAA	1.11
CAAAAAGTGC	0.976
CGTGTCTGTG	0.983
TATCCGAAGG	1.01
AGTATTCATC	1.01
AAGGAATACG	1.06
CCATTCACTC	1.05
CAGTGCCGGA	0.951
GATAGCGACA	1.01
GGATAGAAAA	0.96
AATGGGATGC	1.04
CGCGCTTGGA	0.988
TGGCGTTCGG	0.967

Reference: the supplement of paper PMC10126150
